Laboratory results reported in the supplement of paper PMC3334620.
Whole data set: some 33,000 sequences, median “E-score (-0.5 to 0.5)” near -0.016, cut for the highest 2% near 0.32. The list shows a part of the results.

The sequences below were run against T1, Stp1 (UniProt B3LFK1) (assay: PBM E-score (8-mer binding enrichment) (E-score (-0.5 to 0.5)); higher = stronger / more preferred TF binding; most listed sequences are background and not binding sites). Settings: protein concentration: 200 nM; construct: GST-full length.
T1 sequence: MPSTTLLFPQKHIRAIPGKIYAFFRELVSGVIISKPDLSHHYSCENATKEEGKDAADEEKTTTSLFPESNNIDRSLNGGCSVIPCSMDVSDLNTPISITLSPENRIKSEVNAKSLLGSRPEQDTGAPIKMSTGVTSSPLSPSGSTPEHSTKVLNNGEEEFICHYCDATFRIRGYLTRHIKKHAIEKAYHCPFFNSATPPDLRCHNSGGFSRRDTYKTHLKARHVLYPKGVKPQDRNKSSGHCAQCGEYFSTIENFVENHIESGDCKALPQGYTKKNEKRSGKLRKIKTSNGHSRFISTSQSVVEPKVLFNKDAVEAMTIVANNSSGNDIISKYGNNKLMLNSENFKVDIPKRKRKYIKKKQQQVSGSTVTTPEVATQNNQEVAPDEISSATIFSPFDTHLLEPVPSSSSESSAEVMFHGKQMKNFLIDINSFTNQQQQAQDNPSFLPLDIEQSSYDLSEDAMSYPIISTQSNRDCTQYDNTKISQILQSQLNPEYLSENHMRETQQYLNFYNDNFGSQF
Description: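 Universal 'all 10-mer' protein binding microarrays (Agilent AMADID 015681) probed with GST-tagged S. cerevisiae TFs (full-length or DBD) made by in vitro transcription/translation (PURExpress), about 100-200 nM. Bound TF was detected with fluorescent anti-GST. Each ungapped 8-mer (which stands for itself and its reverse complement) is scored by the PBM enrichment score (E-score), a modified Wilcoxon-Mann-Whitney statistic from -0.5 to +0.5, computed with the Universal PBM Analysis Suite. Scale: above 0.35 generally sequence-specific binding.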

Sequence	PBM E-score
ACATTCCA	-0.0541
TGCTTCAA	0.0325
ATGTACCC	-0.0943
ACAACCAG	0.0579
TAAAACGA	-0.104
AATAGAGT	-0.0387
CAAGTGAG	-0.212
CAATGTAA	0.147
CTCCACAG	-0.0914
CGCGATGA	-0.115
AATCGAGG	0.0389
AATGTCTG	-0.15
TCCCGTCA	-0.193
ATTAATCA	0.197
GAACGACC	-0.446
CCTGAAGA	0.134
TCATGACA	0.0942
AAAACCGA	0.165
AGCAGGGA	-0.144
CTAACTAG	0.185
CCCATCCC	-0.0306
CCTGCGAA	0.0686
GCGTCGAA	0.185
CAGCAGAA	0.0405
CACACACA	0.132

Sequence	PBM E-score
AGGCACAT	0.276
AATGTATC	0.124
AGAAGAAC	-0.112
CGCATGAA	0.0568
AAACATCC	-0.0685
CTACACGA	0.0596
AACATGAG	-0.0339
ATGGCAAA	0.197
AGGGATGC	-0.276
AAATTACG	0.0279
ACGAACTG	-0.0676
ATTTGTCG	0.146
ACTATGAC	-0.161
GACTATGC	0.0992
CCTATCCA	-0.178
ACCTTGAA	-0.0465
CCGGAGCC	0.106
GCCTGGCC	-0.131
ATACGATA	0.134
AAGCCTTG	0.0913
ACGTAAGT	-0.0623
ATGGATGA	-0.2
GACCACCC	-0.319
TACACGAA	0.197
ATCCGTTG	0.0915

Sequence	PBM E-score
AGGGCTAT	-0.325
ACCTAGTC	-0.201
TCACATCA	0.0347
CCTCATGA	0.116
AACGTATG	-0.0401
ACCACCCG	-0.166
AGGAGTTA	-0.0828
TACGGGAA	-0.0475
CGGGAGAA	-0.111
CAAGAGGG	-0.0331
ACTAATCA	0.093
CAATTTCG	-0.094
AAAGAGAG	-0.0373
ACTAGCGC	-0.0687
CCCGGAAA	0.00798
CAGGATCG	-0.06
CCTGGAAG	-0.162
ACACCGAG	-0.221
ACGACATC	-0.223
CACTACCC	-0.194
ACTGGCGA	-0.0364
AATGGAAG	-0.122
CTGCCGAA	0.127
TCAAGAGA	-0.0071
ATCGCTCC	-0.133

Sequence	PBM E-score
CCCATCGG	-0.0927
AGGCTCTA	0.15
CTCCGACA	-0.0252
ACTCTTGG	-0.0882
GCGCGTAC	0.27
CAGCCCGG	-0.147
AGTCATCC	-0.239
CATAAGGA	-0.0131
GTTGGATA	0.0451
ATAGGGTG	-0.177
AACTGATC	0.00151
CCGCAACG	0.239
ATTATCAA	0.117
TCATATCA	0.0845
CCATCCAC	-0.0981
CGCTGACC	-0.0741
AGTTAAGA	0.13
GACTGGTA	-0.131
AGCACTTG	-0.266
AAACGCAG	-0.0288
AAGTTCAG	0.0667
CTAGCACC	-0.101
ACCTTCCC	-0.206
GGGGTTAC	-0.236
CTTGGACC	-0.247

Sequence	PBM E-score
CGGGAATA	0.0616
AGCAGAAC	-0.0297
CGTATTGC	0.31
ACGTTGGC	-0.196
GACCATAC	-0.0929
GGCGACCC	-0.127
GTACCGGA	-0.186
CCGGGATA	-0.16
CGCCGTCC	0.443
GGGGGTTA	-0.364
AGTACTCA	-0.181
AGCATGCG	0.016
CCGGTCTC	-0.191
ACTAGAGA	0.0388
CTATGTGC	-0.00165
AGTCGTGA	-0.212
CGGGCGAC	-0.18
CAAGTGTA	0.0361
AAGTTGGT	0.0835
ACAATCCC	-0.122
GCGCGCAA	0.241
CTACTATA	0.0795
ACAAGGAA	0.112
CGGAGGTC	-0.113
CAATTTGA	0.142

Sequence	PBM E-score
TACAACGA	0.0239
ATAGCCCA	-0.135
CCCCGCGA	-0.109
CCCTGACA	-0.176
GAGGACAA	-0.101
CCAGCTGC	-0.0237
GATTTGAC	0.121
AATCTATG	0.159
AGCGTGGC	0.0819
CTGTCGGC	-0.0349
CATAGTTA	-0.0909
ACTTCGCT	-0.0565
ATAAGCTC	-0.0907
CGAAACCC	0.011
ACACGCTG	-0.0206
CTCCGCCA	-0.187
GAGGGGCC	-0.22
CGATCCCG	-0.169
TATGGTGA	0.0568
AAGGATTC	-0.0723
CAAACTAA	0.22
GCTCAGCC	-0.123
GGGACCAA	-0.143
ACTTGCCC	-0.2
AGTAGTAG	-0.0597

Sequence	PBM E-score
CCTTACAA	0.175
AATATACT	0.13
AACACGTC	-0.0601
AGGGTATC	-0.0323
AACAACCT	-0.0862
AGATATAT	0.22
CTTTTTCC	0.0308
CCGCCACA	0.0206
AGCGAAAC	0.191
ACACTCTC	0.0134
CGCCAACC	-0.0271
GGTAGAAA	0.175
GCATCTCC	0.0358
GATTTCGC	0.267
GAGTTTCA	-0.0138
CCACGCGC	0.0705
CCGTTGTA	0.133
GCGTGTAC	0.0532
AATATCGC	0.0624
CGCGATTA	0.0152
CCCAAACA	-0.00715
AGTGACCC	-0.267
ATTGATCA	0.0447
AAGATTTA	0.0761
CGCCTAAA	-0.0442

Sequence	PBM E-score
AGGTCAGC	-0.156
CCCATGCG	-0.0914
TATATCAA	0.191
GCAGCTAC	-0.007
CAAGTTAG	-0.00852
CTCTAAAA	0.0923
AATACTTG	0.0331
ATAGATCG	0.00583
CACGCAGC	-0.0588
AGTACGTC	-0.0637
CAACCACC	-0.19
GGCTCCCA	-0.152
ATGGAGGG	-0.311
ATTGCCGC	0.418
GCCGTCGA	0.278
TCACCCAA	-0.00808
CGTTCTAA	0.0542
AAGATGGG	0.0482
CGGTACAA	0.08
AAAATATC	0.172
AGAATAAC	-0.00738
GCTGATCC	-0.116
ACCTGAAC	-0.223
AGTCCATG	-0.221
AGGCTGGC	-0.378

Sequence	PBM E-score
CGGTAGAG	-0.163
CGGCCCGC	-0.0277
AGAAGCCT	0.0299
GTGGATAA	-0.116
GAGGTCGA	-0.099
AAACAACG	-0.00102
AGGCCTTG	-0.201
GAGCTGAC	-0.00082
CGCGGCCC	0.349
TCATACGA	0.104
CTTTCATC	0.0152
ACCCATGG	-0.102
CGATATTA	0.0913
GCAGAAAA	0.171
CCATGAGG	-0.0913
CGGTTTAA	-0.109
CGTTAGGA	0.0333
CATCAGAC	0.0335
CACTATTA	-0.0147
ACGCCCAT	-0.0727
GCCTTAAA	0.131
ACATGTGG	0.0769
AAGTTGGA	0.0716
CGGAAGAC	0.0382
CTTTAGCA	-0.213

Sequence	PBM E-score
CACGGTCC	-0.109
CCACTTCA	-0.0855
ACCGTGCA	-0.0437
CCAGAATA	0.0464
AAAAACTC	0.00309
AACATCTA	-0.0371
CCAACTAA	-0.0424
GTAGAGAA	0.0253
AGCTCCCA	-0.206
ATTACTGC	0.0815
ATTGAAAA	0.159
GCTAATTA	0.137
ATCCCGAT	-0.157
ATCAAACG	0.287
GCGATCGA	0.208
ACTTCGGC	0.0407
GTGGTAAA	-0.0347
GATTCTGC	0.241
ACCCTTCC	-0.193
CAGATTCA	-0.126
ACGTTGCG	0.0401
CCACAAAA	0.0619
AGGAAATC	0.0354
ACTATAAT	0.122
CACTATGA	-0.207

Sequence	PBM E-score
CCCAACAC	-0.133
AGACTCTG	-0.222
AAAAATGT	0.0261
AAATCATC	-0.0786
CCTGTAAC	0.0142
GCCATAGC	0.0522
ACGTGTGC	-0.128
AAAGTCGG	-0.189
AGAATTGA	0.0122
GTTAGTGA	-0.00961
CACGTGCC	0.28
AGTTAGAG	-0.0464
CTGTTTCC	-0.283
CCAAGCAA	-0.103
AGAACAAG	0.0914
AATGATCC	-0.0358
AAGAGGCA	0.363
AAGTAGCT	-0.303
GTTGTATA	0.0897
ACTCGAGG	-0.0841
AGAAAAAT	0.0941
CCTTGCCG	0.178
GACAGCGC	0.203
AGCGGAAC	-0.0267
GGACAATA	0.0607

Sequence	PBM E-score
ATAGCGGA	-0.197
CTAGCTTA	-0.0324
CTGCGACC	-0.243
AACGCCGA	0.292
GACGGAAC	-0.0397
TTATCCAA	0.113
AGGTCTGA	0.021
AGCAGTGG	-0.0995
CCTGCTAC	-0.0762
ACAGAACA	0.0388
ACTCCGCA	-0.124
CCCTGATC	-0.255
CCCATCAC	-0.283
CGAGAAGC	-0.112
CTGTCATA	0.0409
ACCGGTCG	-0.272
AATGGGCC	-0.0293
ATCACAGC	0.0718
CCGCTAAC	0.0995
GAAACAGC	-0.0001
GCGGAGTA	-0.192
ACCCGGGA	-0.144
CACAATCG	0.0953
CCATGGCA	0.0885
TAGGCGCA	0.155

Sequence	PBM E-score
AATCACAC	0.137
GAAGACGC	-0.00189
CACCCCGG	-0.286
GACGATTA	0.0173
CCGACCCG	-0.086
GGAGTTAC	-0.0897
CAGCGGAA	-0.135
CAATATCA	0.0533
GTCAGAAC	-0.094
AGGTTACT	-0.139
CTCAACAG	-0.0244
CCGGGTGC	-0.0828
CAAATGTA	0.135
CTATCTTA	0.0702
GCTAAATA	0.172
GCACGCCC	0.0356
GCCCATGA	-0.0742
CTAAGCTC	-0.0659
ATGGTGCG	-0.0219
ACGGCCCT	0.275
CACTTAAG	0.248
GAGTTTGC	0.0662
ATATTTGA	0.0238
ATGCCTTA	0.236
AGTCACCA	-0.306

Sequence	PBM E-score
AATGGCAG	0.0303
ACATAACA	0.132
AGGTGACA	-0.0681
GGTCCTCA	-0.224
AATCATGT	-0.0694
ACACATCA	-0.115
ACAGACCG	-0.158
GAGGGGAC	-0.204
CATTACCG	-0.0915
CGATTAAC	0.111
CCCGTCTA	-0.0264
CATGAGTA	0.0433
AGCTTCGA	-0.146
AGGATTCG	-0.0348
ACTTAAGT	0.131
ATTGTGCG	0.161
ACAGAGCG	-0.124
TCTGGACA	-0.198
ACTGTCTC	-0.127
